Measured values as given in ChEMBL document CHEMBL1157539, “Thousands of chemical starting points for antimalarial lead identification” (Nature, 2010).
Whole data set: some 13,000 compounds, median “IFI” near 4, cut for the highest 2% near 17. Some of the results follow.

Test: GSK_TCMDC: Inhibition Frequency Index (IFI). The number of non-kinase HTS assays where a compound showed > 50 % inhibition, expressed as a percentage of the number of such assays in which the compound was tested (-0 is zero)
Assay type: functional

| SMILES | IFI [%] |
| --- | --- |
| CC(CC1CCCCC1)NCc1ccccc1OCCC(=O)N1CCCC1C(N)=O (stereo not drawn) | 0.77 |
| COc1ccc(-c2cnn3ccc(Nc4cc(OC)c(OC)c(OC)c4)nc23)cc1OC | 12.8 |
| N=C(N)NC(=O)Nc1cc(Br)c(Br)c(Br)c1 | 6.5 |
| CC(=NNC(N)=O)C1=C(O)C(c2ccccc2)N(C2CCCCC2)C1=O (stereo not drawn) | 1.52 |
| O=C(CCc1c[nH]cn1)Nc1cccc(-c2ccc(-c3nc4cc(F)ccc4[nH]3)s2)c1 | 2.61 |
| CC(C)Nc1nc(NC2CCCCC2)nc(N2CCCCCCC2)n1 | 4.96 |
| CC1CCN(c2nc(C(=O)NCCc3ccc(Cl)c(Cl)c3)c(C(C)C)s2)CC1 | -0 |
| CCCC(C)C(=O)N1CCOC(COCc2cccc(C(F)(F)F)c2)(c2ccc(Cl)cc2)C1 (stereo not drawn) | 2.82 |
| O=C(Nc1ccc(Cn2ncc(N3CCCNCC3)c(Cl)c2=O)cc1)Nc1cc(F)cc(C(F)(F)F)c1 | 8.82 |
| Cc1cc(C2CCN(CCCCNC(=O)c3ccc(NC(=O)c4ccc(Cl)cc4)cc3)CC2)c(C)cc1OCCN(C)C | 5.76 |
| Cc1ccc(NC(=O)c2ccc(C(=O)NC3CCN(CC4CCCCC4)CC3)cc2)cc1 | 1.79 |
| COc1ccc(S(=O)(=O)N2CCCc3ccc(Br)cc32)cc1N1CCN(C(=O)C(Cl)(Cl)Cl)CC1 | 4.2 |
| Cc1cc(-c2ccc3c(c2)CCN(CCCOc2ccc4c(c2)CCN4C(=O)/C=C/c2ccccc2Cl)CC3)no1 | 10.8 |
| COc1ccc(NC(=O)C2c3ccccc3C(=O)N(CC(C)C)C2c2cccs2)cc1OC (stereo not drawn) | 2.38 |
| COc1ccc(-c2ccc(S(=O)(=O)Nc3cc4c(cc3OC(C)C)CCN(C)CC4)cc2)cc1 | 4.29 |
| O=C(NCC1CN(Cc2ccc(N3CCCC3)o2)CCCO1)c1ccc2c(c1)OCO2 (stereo not drawn) | 3.85 |
| CN1CCN(CC(=O)Nc2ccc(-c3ccc(-c4nc5ccccc5[nH]4)s3)cc2)CC1 | 3.6 |
| COc1ccc(-c2csc(NC(=O)CCC(=O)O)n2)cc1OC | 1.44 |
| O=C(Nc1ccc(-c2ccccc2)cc1)Nc1cccc(Cn2ncc(N3CCCNCC3)c(Cl)c2=O)c1 | 8.22 |
| COc1cc2nc(N3CCC(CNC(=O)c4ccc(C(C)=O)cc4)CC3)nc(N)c2cc1OC | 1.77 |
| O=C(NCC1CCN(C/C=C/c2ccccc2)CC1)Nc1ccc(Oc2ccccc2)cc1 | 14.2 |
| COc1ccccc1C(=O)Nc1ccc(Nc2nc(C)cc(N3CCOCC3)n2)cc1 | 10.8 |

| SMILES | IFI [%] |
| --- | --- |
| COc1ccc2nccc([C@@H](O)CN3CCC(NC(=O)Cc4cc5ccccc5s4)CC3)c2c1 | 2.94 |
| Cc1cccc2nc(-c3cccc(-c4cccc(NC(=O)Cc5c[nH]cn5)c4)c3)[nH]c12 | 4.63 |
| COc1cccc(NC(=O)NC2CCN(CCCCCNC(=O)/C=C/c3ccc(Cl)c(Cl)c3)CC2)c1 | 2.52 |
| CN1CCN(c2nsc3ccc(-c4ccc(NC(=O)Nc5cc(C(F)(F)F)ccc5F)cc4)cc23)CC1 | 12.5 |
| COc1ccc2nccc([C@@H](O)CN3CCC(NC(=O)/C=C/c4cc([N+](=O)[O-])ccc4OC)CC3)c2c1 | 3.62 |
| CCCNCc1ccc(-c2ccc(CN(Cc3ccc4c(c3)OCO4)C(=O)[C@H]3CCCO3)cc2)nc1 | 2.78 |
| CC=CC1CCNC(C(O)c2ccnc3ccc(OC)cc23)C1 (stereo not drawn) | 1.45 |
| O=C(NCc1cccc(C(F)(F)F)c1)c1ccc(CNC(=O)c2ccc(O)c(-c3ccc(Cl)c(Cl)c3)c2)cc1 | 2.94 |
| CCN1CCc2c1cc(C(=O)N[C@@H](Cc1ccccc1)[C@H](O)CNC(C)(C)c1cccc(C(F)(F)F)c1)cc2N1CCCCS1(=O)=O | 4.48 |
| Fc1ccc2[nH]c(-c3cccc(-c4ccc(CNCc5ccccc5)cc4)c3)nc2c1 | 8.57 |
| Cc1c(-c2ccccc2)ccc2[nH]cc(CC#N)c12 | 2.11 |
| O=C(NCc1cccs1)[C@H](Cc1ccccc1)Nc1ccnc(NCCc2ccccc2)n1 | 6.82 |
| Cc1ccc(S(=O)(=O)n2cc(-c3ccnc(N)c3)c3cc(Br)cnc32)cc1 | 5.26 |
| O=C(Nc1ccc(C(=O)Nc2cccc(C3=NCCN3)c2)cc1)Nc1ccc(C2=NCCN2)cc1 | 3.57 |
| CN(C(=O)/C=C/c1cc(C(F)(F)F)ccc1F)C1CCN(CCCCCNC(=O)/C=C/c2ccc(Cl)c(Cl)c2)C1 (stereo not drawn) | 2.14 |
| CC(=O)c1cccc(NC(=O)NC2CCN(CCCCCNC(=O)/C=C/c3ccc(Cl)c(Cl)c3)CC2)c1 | 2.01 |
| O=S(=O)(Nc1cccc(CCN2CCC(N3CCCCC3)CC2)c1)c1cccc2cccnc12 | 0 |
| c1ccc2oc(-c3cc4ccncc4cc3OC3CCNCC3)cc2c1 | 8.77 |
| CN(C)Cc1ccc(-c2cc3ncnc(Nc4ccc(OCc5cccc(F)c5)c(Cl)c4)c3s2)[nH]1 | 9.29 |
| Cc1cccc(C(=O)Nc2ccnc(N3CCC(N(C)Cc4cccc(C#N)c4)CC3)c2)c1 | -0 |
| Cc1ccc(/C=C2/SC(=Nc3ccccc3)NC2=O)c(C)c1 | 1.72 |
| O=C(N[C@@H](Cc1ccccc1)C(=O)NC1CCCc2ccccc21)c1ccc(O)c(-c2cccc(C(F)(F)F)c2)c1 (stereo partly drawn) | 0.73 |

| SMILES | IFI [%] |
| --- | --- |
| CC1CN(c2ccc(NC(=O)c3ccsc3)cc2C(=O)N2CCN(Cc3ccc(C(C)(C)C)cc3)CC2)CC(C)O1 (stereo not drawn) | 1.48 |
| COc1nc(-n2ccc(=N)cc2)nc2ccccc12 | 1.63 |
| Cc1c(N=O)cc(C(C)(C)C)c(O)c1C(=O)Nc1ccc([N+](=O)[O-])cc1Cl | 25.2 |
| Cc1cnc(CNCc2ccc(S(=O)(=O)Nc3ccc(Oc4cccc(Cl)c4)cc3)cc2)cn1 | 7.77 |
| N=C(N)Nc1nc(-c2ccc(NCc3ccc(CNc4cccc(-c5csc(NC(=N)N)n5)c4)cc3)cc2)cs1 | 13.6 |
| Cc1ccc(-c2cc(C(=O)Nc3ccc(S(=O)(=O)N4CC(C)OC(C)C4)cc3)[nH]n2)c(O)c1 (stereo not drawn) | 1.47 |
| C=CCN(c1nc(NC)nc(NCc2c(OC)cccc2OC)n1)C1CCCC1 | 11.5 |
| Cc1ccccc1C1CCN(C2CCC(NC(=O)c3ccc(-c4cc(C(F)(F)F)nn4C)s3)CC2)CC1 (stereo not drawn) | 14 |
| O=C(/C=C/c1ccc(Cl)c(Cl)c1)NCCCCCN1CCCC(C(=O)Nc2ccc(Cl)c(Cl)c2)C1 (stereo not drawn) | 14 |
| COC(=O)C1=C(C)NC2=C(C(=O)CC(c3ccc(OC)c(OC)c3)C2)C1c1cccc(O)c1 (stereo not drawn) | -0 |
| O=C(Nc1cccc(-c2cccc(-c3nc4ccccc4[nH]3)c2)c1)Nc1ccc(F)c(F)c1F | 8.74 |
| CC(=O)Nc1ncc(C(=O)Nc2ccc(-c3cccc(-c4nc5cc(F)ccc5[nH]4)c3)cc2)s1 | 4.67 |
| Nc1nc(N)c2c(ccn2Cc2cc3c(cc2Cl)OCO3)n1 | 2.88 |
| CSc1ccc(CN2CCC(NC(=O)c3ccc(-c4ccc(N(C)C)cc4)s3)CC2)cc1 | 8.77 |
| Cc1cc(NC(=O)c2cccs2)ccc1OC1CCN(Cc2ccc(F)cc2)CC1 | 3.23 |
| CCCCOc1ccc(C(O)C(CN2CCCCC2)c2ccccc2)cc1 (stereo not drawn) | 0.74 |
| CCCCN(CCCC)CCCCCCNc1c2ccccc2nc2ccccc12 | 2.9 |
| FC(F)(F)c1ccc2[nH]c(-c3cccc(-c4cccc(CN5CCN(c6ccncc6)CC5)c4)c3)nc2c1 | 11.5 |
| Cc1nnsc1C(=O)Nc1cccc(-c2csc(-c3nc4ccccc4[nH]3)c2)c1 | 7.34 |
| Nc1nc(N)c2c(Oc3cc(Cl)c(Cl)c(Cl)c3)cccc2n1 | 3.08 |
| CCC[C@@H]([C@@H](CC1CCCCC1)C(=O)N[C@H](C(=O)Nc1nccs1)C(C)(C)SCCOCCOCC)N(O)C=O | 5.07 |
| O=C(c1cc(C(=O)Nc2ccccc2F)c(=O)n(-c2ccccc2F)c1)c1cc(Cl)ccc1O | 2.07 |

| SMILES | IFI [%] |
| --- | --- |
| COc1ccc(COc2cc(NCCCN)nc3ccccc23)cc1 | 0 |
| COc1cc(C(=O)N2CCOC(CCN3CCC[C@H]3C(=O)Nc3ccccc3)(c3ccc(Cl)c(Cl)c3)C2)cc(OC)c1OC (stereo partly drawn) | 4.83 |
| O=C1CN(C(=O)CCC2CCCC2)C(c2ccc(F)cc2)c2cc(F)ccc2N1 (stereo not drawn) | 2.61 |
| CCNc1cc(C)nc(Nc2ccc(NC(=O)C3CCCC3)cc2)n1 | 7.69 |
| COc1ccc(-c2cccc(NC(=O)c3cccc(C#N)c3)c2)cc1CN(C)CCO | 3 |
| O=C(NCCN1CCCC1)N1CCCN(c2ncnc3cc(-c4ccc(F)cc4)sc23)CC1 | 0 |
| Cc1cc(OCCCN2CCCCC2)ccc1NC(=O)COc1ccc(Cl)cc1C(=O)c1cc(C#N)cc(C(F)(F)F)c1 | 7.2 |
| O=C(NCc1cccc2ccccc12)C1CCCN(C(=O)c2ccc(O)c(-c3ccc(Cl)c(Cl)c3)c2)C1 (stereo not drawn) | -0 |
| COc1ccc2nccc(N3CCCN(CCNS(=O)(=O)c4ccc5c(c4)NC(=O)CS5)CC3)c2n1 | 0.7 |
| O=C(NCc1cccc(F)c1)Nc1cccc(-c2cccc(-c3nc4ccccc4[nH]3)c2)c1 | 1.01 |
| CCOc1c(CCNCCCCNCCc2ccc3ccccc3c2OCC)ccc2ccccc12 | 18.4 |
| CC(=O)Oc1c(C(=O)C2CCC(C(C)(C)C)CC2)c(OC(C)=O)c2ccccc2c1OC(C)=O (stereo not drawn) | 4.88 |
| Cc1nc(-c2cccc(Nc3nccc(NCC(O)c4cccc(F)c4)n3)c2)cs1 (stereo not drawn) | 15.9 |
| O=C(Nc1nccs1)c1sc2ccccc2c1O | 5.65 |
| O=C(NC1CCCc2ccccc21)[C@@H]1CCCN1C(=O)c1ccc(O)c(-c2ccc(Cl)c(Cl)c2)c1 (stereo partly drawn) | 0 |
| CN(CCN)Cc1cccc(-c2ccc(-c3nc4cc(C(F)(F)F)ccc4[nH]3)s2)c1 | 9 |
| CCC1CN2CCc3c([nH]c4ccccc34)C2CC1CC1=NCCc2c1[nH]c1ccc(OC)cc21 (stereo not drawn) | 7.63 |
| CC(NC(=O)c1ccc(O)c(-c2ccc(Cl)c(Cl)c2)c1)C(=O)NCCN1CCCC1 (stereo not drawn) | 3.7 |
| Fc1ccc2[nH]c(-c3ccc(-c4cccc(CN5CCN(CCN6CCOCC6)CC5)c4)cc3)nc2c1 | 4.23 |
| COc1ccc2[nH]ccc(=NN=Cc3ccccc3)c2c1 | 2.21 |
| CCCCCCCNCc1c(O)ccc2c(CNCCCCCCC)c(O)ccc12 | 13.6 |
| C=CCN1CCC(N(Cc2cccc(Oc3ccccc3)c2)C(=O)C(c2ccccc2)c2ccccc2)CC1 | 2.13 |
